Results reported in PMC12040169 (PLOS Biology, 2025).
Some of the results follow.

System: T1, C. trachomatis L2/434/Bu expressing GFP (CTL2-GFP)
T1 construct: L2/434/Bu GFP intracellular growth in HeLa cells
Set-up: species or system HeLa; C. trachomatis total inclusion area by high-content imaging, normalised to DMSO
Conditions: total inclusion area; 28.5 h, 10 µM; inhibitor
Method in brief: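 High-content imaging followed the bulk GFP/resorufin measurement: fixed, Hoechst-stained cells were scored for GFP inclusions and host nuclei per well. Total inclusion area and count served as growth proxies, nuclei number as the viability proxy. MIC calculation matched the bulk assay.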

Structure (SMILES)	% of control remaining
Cc1ccc(Cc2c(C)nc(N3CCN(Cc4ccccc4)CC3)[nH]c2=O)cc1 [CBK270170]	100.524
CC(C)n1c(=O)n(CC(=O)NC2CCCCC2)c2cccnc21 [CBK283696]	86.488
O=S(=O)(Nc1nnn[nH]1)c1cccc2nonc12 [CBK062380]	119.073
CCCn1c(C)cc(-c2csc(NC(=O)CCn3c(-c4cccs4)n[nH]c3=S)n2)c1C [CBK295326]	109.762
COc1ccc(C2(NCc3ccc(N4CCCC4=O)cc3)CC2)cc1 [CBK282834]	78.5076
CCOC(=O)N1CCN(Cc2nc3c(c(=O)n(C)c(=O)n3C)n2Cc2ccccc2C)CC1 [CBK269325]	100.282
COc1ccccc1N(CC(O)CN1CCCC1)S(=O)(=O)c1ccccc1 (stereo not shown) [CBK264829]	79.174
O=C(O)Cc1ccc(NC(=O)c2cccc(NC(=O)c3ccco3)c2)cc1 [CBK268606]	83.2783
COc1cc(F)cc(OC2CCNCC2)c1NC(=O)C1CCC1 [CBK045912T]	88.4118
Cn1nccc1NC(=O)Nc1ccc(CN2CCOC2=O)cc1 [CBK306279]	53.9254
COc1ccc(C2C(C(=O)Nc3ccc(C)cc3)=C(C)Nc3ncnn32)cc1OC (stereo not shown) [CBK294416]	92.2508
Cc1cc(C)nc(Nc2ccc(C3CCCN(C(=O)C(C)(C)c4cccc(F)c4)C3)nc2)n1 (stereo not shown) [CBK286007]	96.2363
CC(O)c1nc2ccccc2n1C (stereo not shown) [CBK115560]	110.422
COc1ccccc1C(CNC(=O)Nc1cc(C)on1)N1CCCC1 (stereo not shown) [CBK304586]	83.933
CC(C)NC(=O)C1CC2CCC1CC21NC(=O)c2ccccc2O1 (stereo not shown) [CBK284353]	91.504
CCN(CC)C(=O)c1sc2ncccc2c1NS(=O)(=O)c1ccc(C)c([N+](=O)[O-])c1 [CBK050618]	102.137
COc1ccc(NS(=O)(=O)c2ccc(Cl)c(C(=O)Nc3ccccc3C(=O)O)c2)cc1 [CBK263209]	19.5847
O=C(NCCCNC1CCc2[nH]c3ccccc3c2C1)c1cccc(Br)c1 (stereo not shown) [CBK107130T]	49.1513
O=C(O)c1cc(C(=O)O)c(-c2ccccc2)c(C(=O)O)c1 [CBK261101]	95.0584
Cc1noc(C)c1S(=O)(=O)Nc1c(C(=O)N2CCN(C)CC2)[nH]c2ccccc12 [CBK050057]	97.3621
COc1ccc(C(=O)CSc2nnc(-c3ccc4c(c3)OCO4)n2-c2ccccc2)cc1 [CBK263592]	123.035
NC[C@H]1CC[C@H](C(=O)NCCN2CCc3ccccc32)CC1 [CBK282723]	116.717
Cc1sc(-c2ccc(C(F)(F)F)cc2)nc1COc1cncc(N2CCNCC2)n1 [CBK172383G]	71.9656
O=[N+]([O-])c1ccccc1/C=C/CN1CCN(CCO)CC1 [CBK261863]	108.455
CC1CCN(c2ccc(S(=O)(=O)Nc3cc(C(=O)O)cc(C(=O)O)c3)cc2[N+](=O)[O-])CC1 [CBK263886]	88.9623
O=C(NCN1CCN(c2ccccc2F)CC1)c1cccnc1 [CBK265530]	79.2867
CCc1nc2cc(NC(=O)c3csc(C(C)=O)c3)ccc2n1C [CBK282522]	82.0309

Structure (SMILES)	% of control remaining
Cc1oc2c(c1C(=O)NCCn1ccnc1C)CCCC2 [CBK281898]	80.2873
CC(C)S(=O)(=O)N1CCC(C(=O)NC(c2ccccc2)c2ccc3ccccc3n2)CC1 (stereo not shown) [CBK059676]	96.6363
O=C(O)CCc1ccc(-c2cn3ccnc3c(NCc3ccncc3)n2)cc1 [CBK038022]	104.149
CN(C)C(=O)c1cccc(-c2cnc(N3CCOCC3)c3nccn23)c1 [CBK091261]	129.048
Cn1c(=O)c2c(nc(N3CCN(c4cccc(Cl)c4)CC3)n2CC(=O)O)n(C)c1=O [CBK286803]	99.6441
O=C(O)CCCc1ccc2sc3ccccc3c2c1 [CBK010971]	94.1548
N#Cc1c(Nc2cccc(C(F)(F)F)c2)sc(C(=O)c2ccc3c(c2)OCO3)c1N [CBK074399]	1.675
CN1CCN(CCCNC(=O)C2(c3ccccc3)CCCC2)CC1 [CBK149521]	109.737
Nc1ncc(-c2ccc(F)c(Cl)c2)nc1NCCCO [CBK063555]	104.735
Cc1cccc(CN2CCC3(CCc4ccccc4C(=O)N3)C2)n1 (stereo not shown) [CBK284619]	93.8141
Cc1nnc(Sc2ncccc2C(F)(F)F)s1 [CBK115211]	109.476
CCCc1cc(C(=O)N2CCCC(COc3cccc(F)c3)C2)[nH]n1 (stereo not shown) [CBK306776]	75.5277
CC(C)[C@H]1NC(=O)[C@@H]2[C@@H](NC(=O)NC3CCCCC3)CCN2C1=O [CBK289264]	87.5833
CC(NC(=O)N(CCCN)Cc1ccccc1C(F)(F)F)c1ccccc1 (stereo not shown) [CBK034668C]	26.5418
COc1cccc(CNc2ccc(S(N)(=O)=O)cc2)c1OCc1ccccc1F [CBK267906]	91.9515
O=C(c1cc2ncc(CCO)cn2n1)N1CCC(c2ccccc2Cl)C1 (stereo not shown) [CBK307266]	53.417
COc1ncccc1C(NC(=O)C1CCN(C(=O)OCc2ccccc2)CC1)c1ccccc1C (stereo not shown) [CBK076802]	110.818
Cc1cc(C(F)(F)F)n2nc(C3CCCN3C(=O)C(C)C)cc2n1 (stereo not shown) [CBK284685]	94.3014
COc1ccnc(N2CCCN(CCCC#N)CC2)n1 [CBK084124]	45.1484
OCc1ccc(-c2nccnc2N2CCCC2CO)cc1 (stereo not shown) [CBK089053]	75.6732
Cc1ccc2ccc(S(=O)(=O)NCc3cccnc3)cc2c1 [CBK262072]	89.5065
c1csc(-c2nccnc2NCCc2ccncc2)c1 [CBK036764]	100.493
c1ccc(CCN2CCC(Oc3cncc(OCC4COc5ccccc5O4)n3)C2)cc1 (stereo not shown) [CBK084382]	80.9309
CSc1ccc(CN(C)CCN(C)C)cc1 [CBK019349]	71.0995
O=C(O)CCNC(=O)c1ccc(C#CC2(O)CCCCC2)cc1 [CBK286554]	73.2951
Cc1ccc(CNC(=O)C2CC(=O)N(c3cccc(C)c3C)C2)cc1 (stereo not shown) [CBK295183]	63.2825
O=C(O)c1ccc(Cl)c2c1C1C=CCC1C(c1ccc(S(=O)(=O)N3CCOCC3)cc1)N2 (stereo not shown) [CBK268401]	108.947

Structure (SMILES)	% of control remaining
NC(=O)c1ccccc1OCCO [CBK000640]	98.1664
CCOC(=O)c1c(-c2ccc(OC)cc2)noc1C(O)c1ccccc1 (stereo not shown) [CBK002296]	132.915
CC(C)c1ccccc1NC(=O)NCCc1cccs1 [CBK043938]	99.4337
C[C@H]1CN2C[C@H](O)CC2CN1Cc1cccc2ccccc12 (stereo partly shown) [CBK284717]	101.851
COc1cc(NC(=O)CC2NC3CCCCC3NC2=O)cc(OC)c1 (stereo not shown) [CBK266597]	96.6456
O=C(NCCCn1ccnc1)c1cccc(S(=O)(=O)N2CCCCC2)c1 [CBK304687]	79.9921
COc1cccc2cc(C(=O)NC3CC3)oc12 [CBK149813]	104.217
CC1(C)CN=C(N2CCN(C3=NCC(C)(C)S3)CC2)S1 [CBK020461]	83.5661
O=C(O)CCCC(=O)Nc1ccc(O)cc1 [CBK263567]	119.409
CS(=O)(=O)NC1c2cccc3cccc(c23)C1N1CCOCC1 (stereo not shown) [CBK265845]	130.731
O=C(O)c1cc(C(=O)O)cc(N2C(=O)c3ccc(S(=O)(=O)c4ccc5c(c4)C(=O)N(c4cc(C(=O)O)cc(C(=O)O)c4)C5=O)cc3C2=O)c1 [CBK261336]	108.188
O=S(=O)(Nc1ccc2c(ccn2Cc2ccccc2)c1)c1ccc(S(=O)(=O)c2ccccc2)s1 [CBK159533]	83.6314
Cc1cc(NC(=O)c2cc([N+](=O)[O-])ccc2Cl)nc2c1c(=O)oc1ccccc12 [CBK291258]	84.3713
Cc1csc2c(C3CCCN(C(=O)c4ccncc4)C3)nc(C)n12 (stereo not shown) [CBK285213]	84.5058
c1ccc(Oc2ccccc2-c2cc(N3CCC(N4CCCCC4)CC3)ncn2)cc1 [CBK037728]	108.603
Cc1cc(-c2ccccc2)sc1C(=O)/C=C(\O)C(=O)O [CBK263198]	108.266
O=[N+]([O-])c1ccccc1S(=O)(=O)N1CCN(Cc2cccc(Oc3ccccc3)c2)CC1 [CBK264283]	109.516
O=S(=O)(Nc1ccccn1)N1CCCCC1 [CBK269490]	115.518
CSc1ccc(CN(C)c2cncc(-n3cccn3)n2)cc1 [CBK298326]	89.3134
CSCCN1CCCN(c2nccc(OCC3COc4ccccc4O3)n2)CC1 (stereo not shown) [CBK083978]	70.6682
COc1ccc(OCC(=O)Nc2ccccc2N2CCN(S(C)(=O)=O)CC2)cc1 [CBK269177]	116.525
O=C1c2ccccc2C(=O)N1CCc1nc2ccccc2c(=O)n1-c1nc2ccccc2s1 [CBK266358]	130.457
CCCCc1ccc(-c2ccc(-c3cc(C(=O)O)c4cc(C)ccc4n3)o2)cc1 [CBK300528]	31.1693
CN1CCN(c2ncc(-c3ccc(N4CCOCC4)cc3)n3ccnc23)CC1 [CBK091226]	85.395
Cc1cnc(NC(=O)Cc2ccc(F)cc2)s1 [CBK288249]	81.9954
